# Experimental data published in a collection of fitness landscapes (doi:10.1016/j.celrep.2020.107928).
# Whole data set: some 81,000 sequences, median “one-hybrid fitness for binding NBS DNA” near -0.1, cut for the highest 2% near 0.36. The list shows a part of the results.
# B1: Caulobacter ParB omega fusion; a variant is named by its letters at X, in order, B8GW30 (parent)
# chain: MESVVVGEPGMSEGRRGLGRGLSALLGEVDAAPAQAPGEQLGGSREAPIEILQRNPDQPRRTFREEDLEDLSNSIREKGVLQPILVRPSPDTAGEYQIVAGERAWRAAQRAGLKTVPIMVRELDDLAVLEIGIIENVQRADLNVLEEALSYKVLMEKFERTQENIAQTIGKSXSHVANXMRLLXLPDEVQSYLVSGELTAXHARAIAAAADPVALAKQIIEGGLSVRETEALARKAPNLSAGKSKGGRPPRVKDTDTQALESDLSSVLGLDVSIDHRGSTGTLTITYATLEQLDDLCNRLTRGI
# Variants of: B1
# Test: one-hybrid fitness for binding NBS DNA (the Noc-binding site; scaled: cognate 1, non-cognate 0); higher = stronger binding
# Conditions: with NBS DNA site
# How it was run: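 Values were rescaled so that cognate is 1 and non-cognate is 0. Each is a fitness, the log change in a variant's read ratio to wild type from Illumina reads of plasmids before and after selection, with three replicate libraries pooled and variants under 10 reads dropped. Selection of the Caulobacter ParB libraries, four specificity codons randomised, used E. coli USO with a HIS3 reporter, site 19 bp from the promoter, on M9-minus-histidine with 0.1 mM IPTG and 5 mM 3-AT for 48 hours at 37°C.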
row,Variant,one-hybrid fitness for binding NBS DNA
1,SRLT,≤ 0.2
2,KLLV,≤ 0.2
3,QLHG,≤ 0.2
4,PQHY,≤ 0.2
5,AKPI,≤ 0.2
6,PLRV,≤ 0.2
7,DGKR,≤ 0.2
8,NFQE,≤ 0.2
9,YLQP,≤ 0.2
10,RWVR,0.259
11,RARG,≤ 0.2
12,DTHI,≤ 0.2
13,WRDY,≤ 0.2
14,RKSF,≤ 0.2
15,TLIS,≤ 0.2
16,RMIQ,≤ 0.2
17,RFNR,0.325
18,RTVA,≤ 0.2
19,PHHV,≤ 0.2
20,PEPI,≤ 0.2
21,GRMW,≤ 0.2
22,QSEH,≤ 0.2
23,FKAG,≤ 0.2
24,DKVR,≤ 0.2

row,Variant,one-hybrid fitness for binding NBS DNA
1,APGC,≤ 0.2
2,EFLK,≤ 0.2
3,SCPD,≤ 0.2
4,DVHR,≤ 0.2
5,IRAM,≤ 0.2
6,LYHS,≤ 0.2
7,YGFF,≤ 0.2
8,YIMR,≤ 0.2
9,CSQA,≤ 0.2
10,HYWM,≤ 0.2
11,SSNW,≤ 0.2
12,HQGP,≤ 0.2
13,IDHT,≤ 0.2
14,LAGS,≤ 0.2
15,VDRK,≤ 0.2
16,GCQC,≤ 0.2
17,PMYT,≤ 0.2
18,GRTG,≤ 0.2
19,PYLV,≤ 0.2
20,QNNK,≤ 0.2
21,KAVF,≤ 0.2
22,TKVM,≤ 0.2
23,RNFM,≤ 0.2
24,HRWA,≤ 0.2

row,Variant,one-hybrid fitness for binding NBS DNA
1,NTAK,≤ 0.2
2,PANE,≤ 0.2
3,RDVS,≤ 0.2
4,QMMG,≤ 0.2
5,WKVG,≤ 0.2
6,HDQW,≤ 0.2
7,PKTR,≤ 0.2
8,AWLI,≤ 0.2
9,NAKT,≤ 0.2
10,GRLA,≤ 0.2
11,THLL,≤ 0.2
12,AQFF,≤ 0.2
13,SAIL,≤ 0.2
14,MCRW,≤ 0.2
15,TVNH,≤ 0.2
16,RMWA,≤ 0.2
17,QANN,≤ 0.2
18,WSRS,≤ 0.2
19,NMHK,≤ 0.2
20,SLHR,≤ 0.2
21,KAPY,≤ 0.2
22,FHIR,≤ 0.2
23,FDQL,≤ 0.2
24,SIMV,≤ 0.2

row,Variant,one-hybrid fitness for binding NBS DNA
1,MRLQ,≤ 0.2
2,PNAM,≤ 0.2
3,NKAS,≤ 0.2
4,RYIN,≤ 0.2
5,KTNR,0.295
6,QLTD,≤ 0.2
7,SSIQ,≤ 0.2
8,KQQW,≤ 0.2
9,MMQL,≤ 0.2
10,RTGA,0.261
11,RKEK,≤ 0.2
12,GKEY,≤ 0.2
13,LYRL,≤ 0.2
14,FWAY,≤ 0.2
15,WSAR,≤ 0.2
16,LSKR,≤ 0.2
17,KYQC,≤ 0.2
18,RQPC,≤ 0.2
19,PRWS,≤ 0.2
20,RFIY,≤ 0.2
21,HTHL,≤ 0.2
22,THPR,≤ 0.2
23,CNAD,≤ 0.2
24,VTCV,≤ 0.2

row,Variant,one-hybrid fitness for binding NBS DNA
1,VQQE,≤ 0.2
2,EWQN,≤ 0.2
3,TRHP,≤ 0.2
4,SDHS,≤ 0.2
5,QYRV,0.392
6,KRST,0.573
7,QFGV,≤ 0.2
8,NPVT,≤ 0.2
9,HRRI,≤ 0.2
10,WHWG,≤ 0.2
11,NNCS,≤ 0.2
12,QGNG,≤ 0.2
13,IRPE,≤ 0.2
14,GDEP,≤ 0.2
15,YCAC,≤ 0.2
16,DSST,≤ 0.2
17,NKSF,≤ 0.2
18,SKNE,≤ 0.2
19,GKCS,≤ 0.2
20,KIFT,≤ 0.2
21,EEAP,≤ 0.2
22,RLEV,≤ 0.2
23,WGMS,≤ 0.2
24,SAQQ,≤ 0.2

row,Variant,one-hybrid fitness for binding NBS DNA
1,HIMM,≤ 0.2
2,NLRM,≤ 0.2
3,QAMQ,≤ 0.2
4,ELMW,≤ 0.2
5,QSSC,≤ 0.2
6,LCVC,≤ 0.2
7,MARN,≤ 0.2
8,YLQM,≤ 0.2
9,QTNN,0.327
10,SFNV,≤ 0.2
11,RCFT,0.423
12,QALG,≤ 0.2
13,ISKT,≤ 0.2
14,MHYP,≤ 0.2
15,RIRC,0.236
16,TTVR,≤ 0.2
17,PQGT,≤ 0.2
18,CNIR,≤ 0.2
19,PQIY,≤ 0.2
20,HITR,≤ 0.2
21,RDLY,≤ 0.2
22,TQMA,≤ 0.2
23,MDRS,≤ 0.2
24,GVRK,≤ 0.2

row,Variant,one-hybrid fitness for binding NBS DNA
1,AYMC,≤ 0.2
2,LDSM,≤ 0.2
3,MMSM,≤ 0.2
4,CKEG,≤ 0.2
5,YVDS,≤ 0.2
6,QNQV,≤ 0.2
7,EKHG,≤ 0.2
8,KLCG,≤ 0.2
9,PSRA,≤ 0.2
10,HRAC,≤ 0.2
11,LVPC,≤ 0.2
12,RPMA,≤ 0.2
13,SHHC,≤ 0.2
14,VLPG,≤ 0.2
15,TRNG,≤ 0.2
16,QCEA,≤ 0.2
17,KPLK,≤ 0.2
18,TPPM,≤ 0.2
19,PKAP,≤ 0.2
20,DQAD,≤ 0.2
21,KTND,≤ 0.2
22,YPCC,≤ 0.2
23,NQTI,≤ 0.2
24,GIWS,≤ 0.2

row,Variant,one-hybrid fitness for binding NBS DNA
1,LPVD,≤ 0.2
2,PLNT,≤ 0.2
3,HWIG,≤ 0.2
4,AYIN,≤ 0.2
5,MSLW,≤ 0.2
6,SCRN,≤ 0.2
7,DSMD,≤ 0.2
8,TNDR,≤ 0.2
9,RLEH,≤ 0.2
10,QMMD,≤ 0.2
11,RLSN,≤ 0.2
12,HHST,≤ 0.2
13,DING,≤ 0.2
14,ASPI,≤ 0.2
15,GDPR,≤ 0.2
16,SIRG,≤ 0.2
17,AKGR,≤ 0.2
18,QLEK,≤ 0.2
19,TIYT,≤ 0.2
20,VDIS,≤ 0.2
21,YYQC,≤ 0.2
22,PPHP,≤ 0.2
23,FPPI,≤ 0.2
24,HSKY,≤ 0.2

row,Variant,one-hybrid fitness for binding NBS DNA
1,NARD,≤ 0.2
2,FQHG,≤ 0.2
3,NQKY,≤ 0.2
4,QIKY,0.364
5,RRPR,0.605
6,PVCT,≤ 0.2
7,RFYE,≤ 0.2
8,VQFV,≤ 0.2
9,TKHC,≤ 0.2
10,TCAP,≤ 0.2
11,YIPG,≤ 0.2
12,DKMR,≤ 0.2
13,LGQE,≤ 0.2
14,GEIF,≤ 0.2
15,RKSV,≤ 0.2
16,YLSL,≤ 0.2
17,LFLS,≤ 0.2
18,FGGT,≤ 0.2
19,RSMM,≤ 0.2
20,PPMM,≤ 0.2
21,NGDS,≤ 0.2
22,FFSL,≤ 0.2
23,GAHR,≤ 0.2
24,VKYL,≤ 0.2

row,Variant,one-hybrid fitness for binding NBS DNA
1,YLGC,≤ 0.2
2,YRFG,≤ 0.2
3,NSDC,≤ 0.2
4,PLGC,≤ 0.2
5,RPVE,≤ 0.2
6,KPAA,≤ 0.2
7,WTRG,≤ 0.2
8,IKAR,≤ 0.2
9,EQSL,≤ 0.2
10,YSVK,≤ 0.2
11,DHSD,≤ 0.2
12,LMKN,≤ 0.2
13,KFGE,≤ 0.2
14,DRWI,≤ 0.2
15,MKHS,≤ 0.2
16,SCQP,≤ 0.2
17,MLTG,≤ 0.2
18,MLRW,≤ 0.2
19,LDCS,≤ 0.2
20,TNIE,≤ 0.2
21,TLNP,≤ 0.2
22,NSPL,≤ 0.2
23,RSYH,≤ 0.2
24,VSFQ,≤ 0.2

row,Variant,one-hybrid fitness for binding NBS DNA
1,KVRE,≤ 0.2
2,QWPI,≤ 0.2
3,QNCL,≤ 0.2
4,GPTE,≤ 0.2
5,RHQP,≤ 0.2
6,GKVC,≤ 0.2
7,WNVS,≤ 0.2
8,YEKF,≤ 0.2
9,SRQE,≤ 0.2
10,QVAY,≤ 0.2
11,IIII,≤ 0.2
12,SDHG,≤ 0.2
13,GCRL,≤ 0.2
14,TTET,≤ 0.2
15,LMAT,≤ 0.2
16,PWNK,≤ 0.2
17,PFTR,≤ 0.2
18,EISF,≤ 0.2
19,FDHT,≤ 0.2
20,LMPW,≤ 0.2
21,IPIA,≤ 0.2
22,YTNF,≤ 0.2
23,NSVC,≤ 0.2
24,SKHS,≤ 0.2

row,Variant,one-hybrid fitness for binding NBS DNA
1,PKRY,≤ 0.2
2,WSNS,≤ 0.2
3,VHCT,≤ 0.2
4,NWWT,≤ 0.2
5,HDQL,≤ 0.2
6,KFKF,≤ 0.2
7,CVMK,≤ 0.2
8,PKNL,≤ 0.2
9,IKHT,≤ 0.2
10,MNQA,≤ 0.2
11,CATV,≤ 0.2
12,DPIK,≤ 0.2
13,FYPS,≤ 0.2
14,QKSG,≤ 0.2
15,RVLL,≤ 0.2
16,PYPW,≤ 0.2
17,AQKL,≤ 0.2
18,VPDI,≤ 0.2
19,LNSP,≤ 0.2
20,AGKW,≤ 0.2
21,VRTI,≤ 0.2
22,RHTA,≤ 0.2
23,PIAC,≤ 0.2
24,RTAH,≤ 0.2

row,Variant,one-hybrid fitness for binding NBS DNA
1,YDPG,≤ 0.2
2,NHQF,≤ 0.2
3,LMCM,≤ 0.2
4,DYHS,≤ 0.2
5,QSMH,≤ 0.2
6,HGAW,≤ 0.2
7,TYVA,≤ 0.2
8,MPSR,≤ 0.2
9,PLGN,≤ 0.2
10,NMLA,≤ 0.2
11,PMRS,≤ 0.2
12,QRNM,0.461
13,WMPV,≤ 0.2
14,GNWS,≤ 0.2
15,PGNR,≤ 0.2
16,TGYM,≤ 0.2
17,LTSV,≤ 0.2
18,WQDT,≤ 0.2
